# Data reported in the supplement of paper PMC9446081.
# Among all 39,000 compounds or so, about 220 (0.56%) showed activity. The list shows a part of the results.
# Tested on: Escherichia coli K-12 BW25113
# Test: relative growth (OD600 normalised to plate interquartile mean) (fraction); higher = less growth inhibition, active = 0.2 or less
# Details: 50 µM; LB; incubation time: overnight (16-24 h)
# 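Note: static incubation at 37 °C against the wild-type strain, values averaged over two biological replicates.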
row,SMILES,relative growth
1,CNC[C@@H]1OCCCC[C@@H](C)Oc2ccc(NS(=O)(=O)c3cn(C)cn3)cc2C(=O)N([C@H](C)CO)C[C@@H]1C,inactive: 0.92
2,COc1cc(OC)c([C@@H]2c3c(n(C)c(=O)n(C)c3=O)N=C3COC(=O)C32)cc1OC (stereo not given in full),inactive: 1.01
3,CC(C)(C)c1nc(-c2cccc(NS(=O)(=O)c3c(F)cccc3F)c2F)c(-c2ccnc(N)n2)s1,inactive: 0.97
4,C[C@@H]1CN([C@@H](C)CO)C(=O)Cc2cc(NC(=O)CCCCCC(=O)Nc3ccccc3N)ccc2O[C@H]1CN(C)S(C)(=O)=O,inactive: 0.997
5,C[C@@H]1CN([C@@H](C)CO)C(=O)c2cc(NC(=O)C3CC3)ccc2O[C@@H]1CN(C)S(=O)(=O)c1cccs1,inactive: 0.995
6,C[C@H](CO)N1C[C@H](C)[C@@H](CN(C)C(=O)c2cnccn2)Oc2ncc(/C=C/c3ccccc3)cc2C1=O,inactive: 1.01
7,C[C@@H]1CN([C@H](C)CO)C(=O)c2cc(NC(=O)Nc3cccc4ccccc34)ccc2O[C@H]1CN(C)Cc1ccc(-c2ccccc2)cc1,inactive: 0.991
8,C[C@H]1[C@H](C)CC[C@]2(C(=O)O[C@@H]3O[C@H](CO[C@@H]4O[C@H](CO)[C@@H](O[C@@H]5O[C@@H](C)[C@H](O)[C@@H](O)[C@H]5O)[C@H](O)[C@H]4O)[C@@H](O)[C@H](O)[C@H]3O)CC[C@]3(C)C(=CC[C@@H]4[C@@]5(C)C[C@@H](O)[C@H](O)[C@@](C)(CO)[C@@H]5[C@H](O)C[C@]43C)[C@H]12,inactive: 0.994
9,C[C@@H]1CN([C@@H](C)CO)C(=O)c2cc(C3=CCCCC3)cnc2O[C@@H]1CN(C)C(=O)CN1CCOCC1,inactive: 0.968
10,C[C@@H]1CN([C@H](C)CO)C(=O)Cc2cc(NC(=O)Nc3ccc(F)cc3)ccc2O[C@@H]1CN(C)S(C)(=O)=O,inactive: 0.979
11,Cc1ccc(S(=O)(=O)N(C)C[C@H]2OCCCC[C@@H](C)Oc3ccc(NC(=O)Nc4ccccc4)cc3C(=O)N([C@@H](C)CO)C[C@H]2C)cc1,inactive: 1.01
12,C[C@H](CO)N1C[C@H](C)[C@@H](CN(C)Cc2ccc(Oc3ccccc3)cc2)Oc2ccc(NC(=O)NC3CCCCC3)cc2CC1=O,inactive: 1.01
13,Cc1ccc(S(=O)(=O)N(C)C[C@H]2Oc3ccc(NS(=O)(=O)c4ccc(F)cc4)cc3CC(=O)N([C@@H](C)CO)C[C@H]2C)cc1,inactive: 0.981
14,CC[C@@H](C)n1[nH]c(=O)cc1N,inactive: 0.999
15,C[C@@H]1CCCCO[C@H](CN(C)C(=O)c2ccncc2)[C@@H](C)CN([C@@H](C)CO)C(=O)c2cc(NC(=O)NC3CCCCC3)ccc2O1,inactive: 1.02
16,CNC[C@@H]1Oc2ccc(NC(=O)Cn3cnnn3)cc2CC(=O)N([C@H](C)CO)C[C@H]1C,inactive: 0.995
17,OC[C@H]1O[C@@H](O[C@@H]2[C@@H](O)[C@H](O)[C@H](O[C@@H]3[C@@H](O)[C@H](O)[C@H](O)O[C@@H]3CO)O[C@@H]2CO)[C@@H](O)[C@@H](O)[C@@H]1O,inactive: 1
18,COc1ccc(N2CCn3c2nnc(C(=O)NCCO)c3=O)cc1,inactive: 1.02
19,O=C(O)Cc1ccc(CO)cc1,inactive: 1.01
20,CC(C)(O)/C=C/C(=O)[C@](C)(O)[C@H]1[C@H](O)C[C@@]2(C)[C@@H]3CC=C4[C@@H](C=C(O[C@@H]5O[C@H](CO)[C@@H](O)[C@H](O)[C@H]5O)C(=O)C4(C)C)[C@]3(C)C(=O)C[C@]12C,inactive: 1.01
21,C[C@H]1CCCCO[C@@H](CN(C)Cc2ccc3c(c2)OCO3)[C@@H](C)CN([C@@H](C)CO)C(=O)c2cc(NS(=O)(=O)c3ccc(Cl)cc3)ccc2O1,inactive: 1
22,Nc1nc(N)c2nc(CNc3ccc(C(=O)NC(CCC(=O)O)C(=O)O)cc3)cnc2n1 (stereo not given),inactive: 0.992
23,C[C@@H]1CN([C@H](C)CO)C(=O)Cc2cc(NC(=O)Nc3ccccc3)ccc2O[C@@H]1CN(C)C(=O)Nc1ccc(C(F)(F)F)cc1,inactive: 0.975
24,C[C@H](CO)N1C[C@H](C)[C@H](CN(C)Cc2ccncc2)OCCCC[C@H](C)Oc2ccc(NC(=O)CCC(F)(F)F)cc2C1=O,inactive: 1.05
25,C[C@H](CO)N1C[C@H](C)[C@@H](CN(C)C(=O)Nc2ccc(C(F)(F)F)cc2)OCCCC[C@H](C)Oc2ccc(NC(=O)Nc3cccc4ccccc34)cc2C1=O,inactive: 1.01
26,C[C@H]1CN([C@@H](C)CO)C(=O)c2cc(NC(=O)Nc3ccc(F)cc3)ccc2O[C@@H]1CN(C)S(C)(=O)=O,inactive: 0.991
27,C[C@H](CO)N1C[C@H](C)[C@H](CN(C)C(=O)c2ccncc2)OCCCC[C@H](C)Oc2ccc(NC(=O)C3CCCCC3)cc2C1=O,inactive: 1.01
28,CC(C)C#Cc1cnc2c(c1)C(=O)N([C@H](C)CO)C[C@H](C)[C@H](CN(C)S(=O)(=O)c1cn(C)cn1)O2,inactive: 1.02

row,SMILES,relative growth
1,C[C@@H]1CCCCO[C@@H](CN(C)CC2CC2)[C@@H](C)CN([C@H](C)CO)C(=O)c2cc(NC(=O)Nc3ccc(F)cc3)ccc2O1,inactive: 1
2,C[C@H](CO)N1C[C@H](C)[C@H](CN(C)Cc2ccc(-c3ccccc3)cc2)Oc2c(NC(=O)C3CC3)cccc2C1=O,inactive: 0.982
3,CC(C)NC(=O)Nc1ccc2c(c1)C(=O)N([C@@H](C)CO)C[C@H](C)[C@@H](CN(C)Cc1ccc(Oc3ccccc3)cc1)O2,inactive: 1
4,C[C@H](CO)N1C[C@H](C)[C@H](CN(C)Cc2ccc3c(c2)OCO3)Oc2ccc(NC(=O)Nc3ccc(C(F)(F)F)cc3)cc2C1=O,inactive: 0.986
5,COc1ccc(NC(=O)Nc2ccc3c(c2)C(=O)N([C@@H](C)CO)C[C@@H](C)[C@@H](CN(C)S(=O)(=O)c2ccc(F)cc2)OCCCC[C@@H](C)O3)cc1,inactive: 1.02
6,CCCN(C)C[C@H]1Oc2cc(C#Cc3ccccc3OC)ccc2S(=O)(=O)N([C@H](C)CO)C[C@H]1C,inactive: 0.985
7,CC1=C2C/C=C(\C)[C@H](O[C@H]3O[C@@H](CO)[C@@H](O)[C@@H](O)[C@@H]3O)C/C=C(\C)C[C@@H]2OC1=O,inactive: 0.983
8,C=CCCC(=O)N(C)[C@H](C)[C@H](OC(=O)[C@@H]1[C@@H]2C=C[C@]3(O2)[C@H](C(=O)N(CC=C)Cc2ccccc2)N(C(C)(C)C)C(=O)[C@@H]13)c1ccccc1,inactive: 1.03
9,CN1CCN(C(=O)C[C@H]2C[C@H]3c4cc(NC(=O)c5ccc6c(c5)OCO6)ccc4O[C@H]3[C@@H](CO)O2)CC1,inactive: 1.01
10,Cc1ccc(S(=O)(=O)Nc2ccc3c(c2)C(=O)N([C@H](C)CO)C[C@@H](C)[C@@H](CN(C)C(=O)Nc2ccccc2)OCCCC[C@H](C)O3)cc1,inactive: 1.04
11,C[C@@H]1CCCCO[C@@H](CN(C)C(=O)C2CCCCC2)[C@@H](C)CN([C@@H](C)CO)C(=O)c2cc(NC(=O)Cc3ccccc3)ccc2O1,inactive: 1.01
12,C[C@H](CO)N1C[C@H](C)[C@H](CN(C)S(=O)(=O)c2cccs2)Oc2ccc(NC(=O)Cn3cnnn3)cc2C1=O,inactive: 0.984
13,Cc1cccc(C(=O)O)c1O,inactive: 1.03
14,CCCNC(=O)Nc1ccc2c(c1)OC[C@H](C)N(C(=O)C1CCOCC1)C[C@H](C)[C@H](OC)CN(C)C2=O,inactive: 1.03
15,Cc1ccc2c(Br)cc(Br)c(OC(=O)c3ccccc3)c2n1,inactive: 0.528
16,CC(C)C[C@](O)(C(=O)OCc1ccc(O[C@@H]2O[C@H](CO)[C@@H](O)[C@H](O)[C@H]2O)cc1)[C@@H](O)C(=O)OCc1ccc(O[C@@H]2O[C@H](CO)[C@@H](O)[C@H](O)[C@H]2O)cc1,inactive: 1.01
17,C[C@@H]1CCCCO[C@H](CN(C)Cc2ccc3c(c2)OCO3)[C@H](C)CN([C@@H](C)CO)C(=O)c2cc(NC(=O)Nc3cccc4ccccc34)ccc2O1,inactive: 1.03
18,C[C@@H]1CN([C@@H](C)CO)C(=O)Cc2cc(NC(=O)C3CCCCC3)ccc2O[C@@H]1CN(C)S(=O)(=O)c1cn(C)cn1,inactive: 0.985
19,O=C(O)c1n[nH]c2c1CCCC2,inactive: 0.985
20,CC(=O)O[C@H](C)[C@H]1[C@@](C)(O)CC(=O)[C@]23O[C@]12C(=O)c1ccc(-c2ccc4c(c2O)[C@@H](O)[C@@]25O[C@]2(C4=O)[C@@H]([C@@H](C)OC(C)=O)[C@@](C)(O)CC5=O)c(O)c1[C@H]3O,inactive: 1.03
21,O=c1[nH]c(=O)n([C@@H]2C[C@@H](O)[C@@H](CO)O2)cc1F,active: 0.0303
22,Cc1noc(C)c1S(=O)(=O)Nc1ccc2c(c1)C(=O)N([C@H](C)CO)C[C@H](C)[C@@H](CN(C)CC1CCCCC1)OCCCC[C@@H](C)O2,inactive: 1
23,COc1ccc(S(=O)(=O)N(C)C[C@@H]2Oc3ccc(NC(=O)Nc4c(C)noc4C)cc3CC(=O)N([C@@H](C)CO)C[C@@H]2C)cc1,inactive: 1.01
24,C[C@@H]1CN([C@H](C)CO)C(=O)c2cc(C#C[C@@H](C)O)cnc2O[C@H]1CN(C)C(=O)Nc1ccc(C(F)(F)F)cc1,inactive: 0.99
25,N#C[C@@H]1C(=O)NC(=O)[C@@H](C#N)C12CCCC2,inactive: 0.934
26,C[C@H]1CN([C@@H](C)CO)C(=O)Cc2cc(NS(=O)(=O)c3cn(C)cn3)ccc2O[C@H]1CN(C)S(=O)(=O)c1ccc(F)cc1,inactive: 0.987
27,CO[C@H]1O[C@H](CO)[C@@H](OC(=O)Nc2cccc(F)c2)[C@H](OC(=O)Nc2ccccc2-c2ccccc2)[C@H]1OC(=O)Nc1ccccc1-c1ccccc1,inactive: 1.05
